# In ChEMBL document CHEMBL4888484, “Replenishing the malaria drug discovery pipeline: Screening and hit evaluation of the MMV Hit Generation Library 1 (HGL1) against asexual blood stage Plasmodium falciparum ,using a nano luciferase reporter read-out” (2022):
# Where “and” joins values, the source holds several entries; their conditions need not be identical. Equal entries are not always repeated. Among all 150,000 compounds or so, about 540 (0.36%) showed an effect of 50% or more. This is one part of the list.
# Test system: Plasmodium falciparum
# Test: Primary screen in NF54 nanoGlo assay, in single point, at 2uM, 72h; a lower Z score goes with more inhibition
# Assay type: functional, Erythrocyte
# Conditions: timepoint 72 hour
SMILES,% Inhibition [%],Z score,% Inhibition (2 µM)
CNc1ncc(-c2cc(C(=O)N3CCCCCC3)c3c(C)cc(C)cc3n2)cn1,2,-0.32,
Cc1ccc(-c2nccn2C[C@H]2CCCN(CCO)C2)c2cccnc12,7,-1.1,
CCc1nc2c(c(OC3CCN(C(=O)c4ccn(CC)n4)CC3)n1)CCOCC2,-11,1.12,
CC(C)Oc1ccc(NS(=O)(=O)C2CC2)c(Cl)c1,28,-3.99,
CCc1c(C)nc(N)nc1N1CCC[C@H](c2nnc(CO)n2C)C1,-6,1.19,
CNc1cc(-c2noc([C@H]3C[C@@H]3c3ccco3)n2)ncn1,-11,2.13,
COCC1(C)NC(=O)N(C2CCCN(c3c(C)cc(Br)cc3C)C2=O)C1=O (stereo not given),-14,2.33,
COc1ccc(CCNC(=O)c2cc(-c3ccccc3OC)nc3n[nH]c(-c4ccc(F)cc4)c23)cc1OC,-16,1.43,
C[C@H]1C(=O)N(CC2CCOC3(CCC3)C2)C(=O)N1C (stereo not given in full),-6,1.23,
Cc1noc([C@@H]2[C@@H](C)OCCN2Cc2cc(C(F)(F)F)nn2C)n1,-9,1.03,
Cc1ncsc1CCOc1ccc(N)cc1,30,-3.44,
CN(C)c1nc(N2CCN(c3ccc(F)cc3)CC2)nc2c1CN(S(=O)(=O)c1ccc(Cl)cc1)CC2,-5,0.99,
COc1ccc(-c2csc3nccn23)cc1,-9,1.15,
CCOc1ccc(-c2nsc(NC(=O)c3cccs3)n2)cc1OC,8,-1.2,
O=C(Nc1ccc(O)cc1)C(=O)Nc1nc2ccccc2s1,-16,2.45,
CCn1ccnc1C(=O)N(C(C)C)C1CC(C)(C)C1,-12,1.82,
Fc1ccc(CNC2CCN(c3ccc4c(c3)OCO4)CC2)c(F)c1,-9,1.7,
Cc1nccn1-c1ccccc1CNC(=O)c1cc(S(N)(=O)=O)ccc1F,-6,0.82,
O=C(Nc1nnc(COc2ccccc2)o1)c1ccccc1,17,-2.38,
NC(=O)C1CCCC(C(=O)NS(=O)(=O)C2CCC2)C1 (stereo not given),-2,0.27,
Cc1csc(-c2cnc(C=Cc3ccnn3CC3CC3)[nH]c2=O)n1,-10,1.35,

SMILES,% Inhibition [%],Z score,% Inhibition (2 µM)
Cc1occc1C(=O)Nc1ccc2[nH]c(=O)[nH]c2c1,-5,0.8,
Cc1cccc(NC2CCN(S(=O)(=O)c3cccs3)CC2)n1,0,0.03,
Cc1noc(C)c1C(=O)NC[C@H](O)c1ccc(-c2ccco2)o1,2,-0.26,
O=C(Cc1ccc(F)cc1F)N1C[C@@H]2CN(CC3CCC3)C[C@]2(C(=O)O)C1,0,-0.02,
CN(c1ccc2c(c1)CCO2)S(C)(=O)=O,13,-1.53,
Cc1ccnc(NCC2CCC(S(C)(=O)=O)CC2)n1 (stereo not given),6,-0.94,
O=C1c2ccccc2[C@H](O)N1COc1cccc(F)c1,-10,1.17,
Cc1nc2scc(C3CC3)n2c1CNC[C@H]1CN(C)CCO1,-8,1.52,
CCN(CC)CCNC(=O)c1ccc(N2CCCc3ccccc32)s1,2,-0.21,
O=C(N[C@H]1CC[C@H](n2cnnc2)CC1)c1cccc(-n2cnnc2)n1,8,-1.13,
CN(C)S(=O)(=O)Nc1cccc(COCC(F)(F)F)c1,-6,0.84,
Cc1nc2ccc(C(=O)Nc3cccc(C(=O)N4CCC[C@H](O)C4)c3)cc2n1C,-6,0.8,
CN1C(=O)[C@]2(Nc3ccccc3C(=O)N2c2ccc(F)cc2)c2ccccc21,-3,0.41,
Cc1ccc(C(=O)NCCC(=O)NC[C@](C)(O)c2ccsc2)c(O)c1,8,-1.46,
COc1cc2c(cc1OC)[C@@H](NC(=O)Cn1c(C)nc3cc(OC)c(OC)cc3c1=O)CC2,7,-0.98,
Cn1ccc2cccc(NC(=O)[C@@]3(C)CCNC(=O)C3)c21,4,-0.5,
CN1C[C@@H](NC(=O)c2cccc(Cl)c2)CC1=O,4,-0.57,
CCNC(=O)c1ccc2cn(CC)nc2c1,-23,3.3,
CCOc1cc(CNCCN2CCOCC2)cc(Cl)c1OCc1ccccc1,38,-0.96,
Cc1cccc(Cn2ncc(C)c2NC(=O)NCCc2cc(O)nc(C)n2)c1,-12,1.76,
C[C@@H](CNC(=O)c1cc2c(s1)CCC2)N1CCOCC1,-11,1.8,

SMILES,% Inhibition [%],Z score,% Inhibition (2 µM)
O=C(NC1CCCCC1)[C@H](Cc1ccccc1)NC(=O)N1CC(O)=Nc2ccccc21,,,5% and -6%
O=S(=O)(Nc1nnc(CC2CCCC2)o1)c1ccccc1,-10,1.06,
COCCNC(=O)c1ccc(-c2cccc3c2CCNC3)o1,-15,2.03,
Cc1cc(S(=O)(=O)NCc2cccc3c2OCO3)sc1Cl,2,-0.25,
CC(C)(C)c1cc(C(F)(F)F)nc(NC(=O)NS(=O)(=O)N2CCCCCC2)n1,-5,1,
COc1ccc2nc(NC(=O)CCc3nc(CS(=O)(=O)c4ccc(C)cc4)no3)sc2c1,-5,0.91,
O=C(c1cc2c(ccc3ccccc32)o1)N1CCCC1,-16,3.18,
CCc1c(C)sc(NC(=O)[C@@H]2CCCO2)c1C(=O)NC1CCCC1,-12,1.64,
C[C@@H](CCNc1cc(=O)[nH]c2cccnc12)NC(=O)OC(C)(C)C,-6,1.27,
CC(C)CN1CCOc2c(O)cc(-c3ccc(Cl)cn3)cc2C1,2,-0.27,
COC(=O)[C@]1(C)C[C@H](C(=O)NC2CCCC2)[C@H](c2ccccc2Cl)N1C,-1,0.09,
CCOC(=O)C1(NC(=O)[C@H]2CCCN(S(=O)(=O)CC)C2)CCCCC1,-9,1.09,
CNc1snc(C)c1C(=O)N(C)Cc1nc2ccccc2c(=O)[nH]1,-3,0.31,
Cc1ccc(C#N)c(N[C@H]2C[C@@](C)(O)C2)n1,9,-0.94,
CNc1nc2c(c(C(=O)N3CCCC3)n1)CN(c1ncnc(C)c1C)CC2,-10,1.9,
COc1ccc(F)cc1-c1cc(N2CCC(O)CC2)ncn1,6,-1.22,
O=C(N[C@H]1CCN(c2ccc(Cl)c(F)c2)C1=O)c1cnsn1,-14,1.64,
CC(C)c1nc(C2CCN(C(=O)[C@@H](O)Cc3c(F)cccc3Cl)CC2)no1,-11,2.01,
Cc1cc(NC(=O)[C@H]2CC(=O)N(c3cccc(C(=O)Nc4ccccc4)c3)C2)ccc1F,-11,1.11,
Cc1c(C2CC2)n[nH]c1NC(=O)Cc1coc(-c2ccc(F)cc2)n1,-6,1.13,
CC1(C)C[C@@H]1C(=O)NC12CC1COC2(C)C (stereo not given in full),-4,0.39,

SMILES,% Inhibition [%],Z score,% Inhibition (2 µM)
COc1cccc(CN2CCC[C@@]3(CCOC3)C2)c1OCCn1ccnc1,-7,1.07,
CC(C)(C)C(=O)N1CCC(O)(CS(=O)(=O)Cc2ccccc2)CC1,34,-4.34,
c1ncc(CCNc2ccc3nnnn3n2)[nH]1,-4,0.59,
CC(C)c1noc([C@@H]2CCCN2C(=O)NC2CCCC2)n1,-12,1.33,
COc1cccc(C(=O)N(Cc2ccco2)Cc2c(-c3ccccc3)nn(C)c2Oc2ccccc2F)c1,-13,1.67,
C[C@@]1(C(=O)Nc2cccc(NC(N)=O)c2)CCCN1C(=O)c1ccccc1,-11,1.92,
COc1cccc2sc(N(C)CC(=O)NCCc3ccc(S(N)(=O)=O)cc3)nc12,-9,1.62,
CNC(=O)[C@@H]1CN(Cc2nccc(N)n2)CCO1,-1,0.17,
COCCN(C(=O)c1cc(-c2ccc(OC)cc2)n[nH]1)C1CCN(C)CC1,-4,0.79,
CN1O[C@@H](CC(=O)NCc2ccc3c(c2)OCO3)N(c2ccc(Cl)cc2)C1=O,-1,0.15,
C[C@H](NC(=O)c1snc(O)c1Cl)c1ccc(Oc2ccccc2)cc1,-11,1.9,
C[C@H]1C(=O)N(C)S(=O)(=O)N1CCOc1c(Cl)cccc1Cl,0,-0.04,
Cc1[nH]c2ccc(OCc3nc(C(C)(C)C)no3)cc2c1C,-14,1.93,
COc1ccc(NC(=O)C2CCN(C(=O)CNC(=O)Nc3c(Br)cc(C(C)C)cc3Br)CC2)cc1,5,-0.79,
O=C(N1CC2CCCC21)C1(C(F)(F)F)CCCC1 (stereo not given),-3,0.43,
CC1(c2noc(-c3ccccc3)n2)CCN(C(=O)CCS(=O)(=O)c2ccc3c(c2)CCC(=O)N3)CC1,-17,2.22,
Cc1cnn(C2CN(Cc3nc(C4CC4)no3)C2)c1,-10,1.04,
CC(C)C(=O)N1CCC[C@H](Nc2ncnc3[nH]cnc23)C1,-3,0.36,
N#Cc1cnc(N[C@H]2COC[C@@H]2O)c(Cl)c1,-15,1.86,
Cc1ncoc1C(=O)N1CCC2(CC1)C[C@@H](N(C(=O)NC(C)C)C1CC1)CCO2,6,-0.92,
